Measured values reported in publication PMC7617869, “Molecular glues that inhibit deubiquitylase activity and inflammatory signaling” (Nature Structural & Molecular Biology, 2025).
Several values for one entry are separate records, joined by “and”; a condition that tells them apart may be missing. Identical values can stand only once. The source gives many values for each of these; only a part stands here. Values belong to the molecule of their own block, whether it stands above or below them.

Key:
BRISC [1] = target: T1, BRISC (Homo sapiens, UniProt P46736+Q15018+Q9NXR7); experiment: BRISC DUB activity assay (IQF K63-linked diubiquitin); type: biochemical
T1 construct: made in house; host or cells: Spodoptera frugiperda (Sf9) insect cells, MultiBac
Protocol: (§1) IQF assays were performed in DUB reaction buffer containing 50 mM HEPES–NaOH pH 7.0, 100 mM NaCl, 0.1 mg ml^−1 BSA, 1 mM DTT and 0.03% v/v Brij-35. […] The final concentration of BRISC WT, all BRISC mutants, HsBRISCΔLoop, MmBRISC and DrBRISCΔNΔC was 1 nM. Other enzymes were tested at the following concentrations: 5 nM ARISC (FL), 10 nM CfBRISCΔNΔC, 250 nM AMSH* (ref. [43]), 500 nM USP2 and 1 μM trypsin (Sigma, 9002-07-7). For Michaelis–Menten experiments, 1 nM BRISC with 0–1 μM IQF K63-linked diubiquitin substrate was used. Michaelis–Menten analyses and Lineweaver–Burk plots were calculated using GraphPad Prism (version 9.0).
To assess enzymatic activity, BRISC complexes were diluted to concentrations between 1 nM and 50 nM. […] Then, 20-μl enzyme reactions were carried out in 384-well black flat-bottom low-flange plates (Corning, 35373). DUB activity was measured using IQF K63-linked diubiquitin (LifeSensors, DU6303) at 50 nM. Cleaved diubiquitin was monitored by measuring fluorescence intensity (excitation, 544 nm; emission, 575 nm; dichroic mirror, 560 nm). Fluorescence intensity was measured every minute for 30 min at 30 °C. Fluorescence intensity units were plotted against time to generate a linear reaction progress curve, where the initial velocity (V0) corresponds to the gradient of the curve (typically achieved within 15 min). IC50 values were calculated using the GraphPad Prism (version 9.0) built-in dose–response equation for inhibitor concentration versus response (variable slope).

BRISC [2] = target: T1, BRISC; experiment: Michaelis–Menten analysis of BRISC inhibition; type: biochemical; conditions: di-Ub-TAMRA 1000 nM
Protocol: as §1

Normalised V0 (BRISC [1]; Fig. 1e, BRISC, JMS-175-2 0.02 μM): 0.8771 and 0.8197 and 1.004
Normalised V0 (BRISC [1]; Fig. 1e, BRISC, JMS-175-2 0.0399999 μM): 1.299 and 0.7892 and 1.03
Normalised V0 (BRISC [1]; Fig. 1e, BRISC, JMS-175-2 0.0599997 μM): 0.839 and 0.6819 and 0.9433
Normalised V0 (BRISC [1]; Fig. 1e, BRISC, JMS-175-2 0.0799994 μM): 0.9097 and 0.9012 and 0.9628
Normalised V0 (BRISC [1]; Fig. 1e, BRISC, JMS-175-2 0.119998 μM): 1.013 and 0.9179 and 1.054
Normalised V0 (BRISC [1]; Fig. 1e, BRISC, JMS-175-2 0.199996 μM): 1.253 and 0.7708 and 1.101
Normalised V0 (BRISC [1]; Fig. 1e, BRISC, JMS-175-2 0.499975 μM): 0.5936 and 0.7022 and 0.9756
Normalised V0 (BRISC [1]; Fig. 1e, BRISC, JMS-175-2 0.799936 μM): 0.9296 and 0.6017 and 0.8518
Normalised V0 (BRISC [1]; Fig. 1e, BRISC, JMS-175-2 1.9996 μM): 0.6268
Normalised V0 (BRISC [1]; Fig. 1e, BRISC, JMS-175-2 19.96 μM): 0.3284 and 0.5166 and 0.3249
Normalised V0 (BRISC [1]; Fig. 1e, BRISC, JMS-175-2 50.147 μM): 0.2621 and 0.1377 and 0.1733
Normalised V0 (BRISC [1]; Fig. 1e, BRISC, JMS-175-2 79.7601 μM): 0.2164 and 0.1356 and 0.1726
SMILES: O=C(NC1CCNCC1)c1nn(C(=O)c2c(Cl)cccc2Cl)cc1NC(=O)c1c(Cl)cccc1Cl [JMS-175-2]
Normalised V0 (BRISC [1]; Fig. 1e, BRISC, JMS-175-2 0.013 μM): 0.9583 and 0.7384 and 1.046 and 0.967 and 0.8595 and 0.8402

Normalised V0 (BRISC [1]; BRISC WT, FX-171-C 0.0035 μM): 0.9562 and 0.7724 and 0.9883
Normalised V0 (BRISC [1]; BRISC WT, FX-171-C 0.035 μM): 0.9974 and 0.792 and 0.9381
Normalised V0 (BRISC [1]; BRISC WT, FX-171-C 0.35 μM): 0.7232 and 0.6751
Normalised V0 (BRISC [1]; BRISC WT, FX-171-C 6.25 μM): 0.161 and 0.1849
Normalised V0 (BRISC [1]; Fig. 1g, BRISC, FX-171-C 0.02 μM): 0.8164 and 1.359 and 1.027
Normalised V0 (BRISC [1]; Fig. 1g, BRISC, FX-171-C 0.0399999 μM): 0.8327 and 1.212 and 1.032
Normalised V0 (BRISC [1]; Fig. 1g, BRISC, FX-171-C 0.0599997 μM): 1.179 and 1.007
Normalised V0 (BRISC [1]; Fig. 1g, BRISC, FX-171-C 19.96 μM): 0.1876 and 0.174 and 0.161
Normalised V0 (BRISC [1]; Fig. 1g, BRISC, FX-171-C 31.4999 μM): 0.1887 and 0.2421 and 0.2131
Normalised V0 (BRISC [1]; Fig. 1g, BRISC, FX-171-C 79.7601 μM): 0.2227 and 0.2164 and 0.1439
Normalised V0 (BRISC [1]; Fig. 1g, BRISC, FX-171-C 125.99 μM): 0.1622 and 0.2082 and 0.2077
Initial velocity (FU/min) (BRISC [2]; inhibitor 3.12 μM): 979 FU/min and 990.8 FU/min
SMILES: O=C(NC1C2CNCC21)c1nn(C(=O)c2c(Cl)cccc2Cl)cc1NC(=O)c1c(Cl)cccc1Cl (stereo not drawn) [FX-171-C]
Normalised V0 (BRISC [1]; Fig. 1g, BRISC, FX-171-C 0.013 μM): 0.9661 and 1.259 and 1.028 and 1.106 and 0.9509 and 0.8874
Initial velocity (FU/min) (BRISC [2]; inhibitor 12.5 μM): 493.9 FU/min and 641.6 FU/min and 679 FU/min
